In the supplement of paper PMC11417369:
± gives the standard deviation of the averaged measurements. The list shows a part of the results.

These sequences were tested on PfAP2-LT AP2 domain (GST-tagged) (assay: gcPBM binding intensity (ln(normalized median fluorescence intensity)); higher = stronger DNA binding).
Procedure, shortened: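 DNA-binding domains from P. falciparum, fused to GST and produced in E. coli, were put on an Agilent 4 × 180k double-stranded probe array for 1 h in 1× PBS holding 1% milk, 0.2 mg/ml BSA, 0.5% salmon testes DNA and 0.03% Triton X-100. Probes were primer-extended, 36 bp long and drawn from intergenic genomic regions, with negative controls included. After Alexa488 anti-GST antibody detection and a 488 nm scan, binding intensity was set as the highest Masliner-normalised natural-log median intensity across replicate spots of either probe orientation.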

**Q.** Which “gcPBM binding intensity (ln)” value does the source give for “TAACATAAATTTAGGAGTACACTTTTTATACATACA [XGTACX_site4066]” here?
**A.** The value was 8.55 ± 0.42.

**Q.** TTTATATTTATTGTTGTGCACAGAACCATATTCGTT was tested. Which “gcPBM binding intensity (ln)” value did it give?
**A.** Its value is 8.94 ± 0.49.

**Q.** How did the “gcPBM binding intensity (ln)” value turn out when “TATCACTATAGACAAGCATGCATATGTACTAATATC [TGCATGCA_site1020]” was run?
**A.** The value was 9.02 ± 0.3.

**Q.** Which “gcPBM binding intensity (ln)” value does the source give for “AATAAAATGGAATACGGTACACATAATCCTAAAATG [XGTACX_site926]” here?
**A.** The value was 8.99 ± 0.46.

**Q.** Which “gcPBM binding intensity (ln)” value does the source give for “ATATTATAAAATAAAAGTACACAATTATATATATAT [XGTACX_site8812]” here?
**A.** Its value is 8.91 ± 0.26.

**Q.** Which “gcPBM binding intensity (ln)” value does the source give for “TATTTTTAAAATTAAATGAATAAATAAATAAATATA [XGTACX_negctrl_site553]” here?
**A.** Its value is 8.08 ± 0.58.

**Q.** Which “gcPBM binding intensity (ln)” value does the source give for “ATATATATCGGACACACACACATGTTTTAAAACTAT [CACACA_site4218]” here?
**A.** The value was 9.59 ± 0.44.

**Q.** How did the “gcPBM binding intensity (ln)” value turn out when “CTTTTATTCAAAAGATGTACTTAAATATATATCTAA [XGTACX_site4326]” was run?
**A.** Its value is 8.09 ± 0.38.

**Q.** With “ATGTGTATAATTAAATGTACATATATATATATATAT [XGTACX_site829]” as the sequence, how does the “gcPBM binding intensity (ln)” value read?
**A.** The value was 9.77 ± 0.35.

**Q.** For “TGCAGTCTGGAGAAACGTACACAGTATCTGGTAACA [XGTACX_site2014]”, which “gcPBM binding intensity (ln)” value is on record?
**A.** The value was 8.84 ± 0.37.

**Q.** Which “gcPBM binding intensity (ln)” value does the source give for “ATTTGAAATTGGTAGACACACAATAAAATATCAAAA [CACACA_site447]” here?
**A.** Its value is 8.74 ± 0.49.

**Q.** With “CATATAAATATTTGTGCACACAATTATTAATAATTA [CACACA_site3884]” as the sequence, how does the “gcPBM binding intensity (ln)” value read?
**A.** Its value is 8.99 ± 0.4.

**Q.** For “AAAAAGTTATTATGAACACACATTTATTATAGTCAT [CACACA_site6838]”, which “gcPBM binding intensity (ln)” value is on record?
**A.** Its value is 8.81 ± 0.37.

**Q.** Which “gcPBM binding intensity (ln)” value does the source give for “TTAAACTTGAGACACACACACACACGGATATAAAAA [CACACA_site6495]” here?
**A.** The value was 9.96 ± 0.19.

**Q.** With “ATACTCACGTGACACACACACAATATAAATAAATAT [CACACA_site7862]” as the sequence, how does the “gcPBM binding intensity (ln)” value read?
**A.** The value was 9.69 ± 0.47.

**Q.** “TGTATATATATCTCAGTGCATTGCAAATTAAAAATT [GTGCAC_site9646]” was tested. Which “gcPBM binding intensity (ln)” value did it give?
**A.** The value was 8.75 ± 0.38.

**Q.** Which “gcPBM binding intensity (ln)” value does the source give for “GGCTTTTTTTAATATGCACACATATATTTTATATAT [CACACA_site8647]” here?
**A.** The value was 9.12 ± 0.32.

**Q.** Which “gcPBM binding intensity (ln)” value does the source give for “TATAATAATCTAATCTGTAGTTTTTTTTTTTTTTTT [CACACA_negctrl_site1206]” here?
**A.** The value was 8.31 ± 0.43.

**Q.** For “AAAAAAAAACAGAAAACACACAAATTATCTTATAAT [CACACA_site4326]”, which “gcPBM binding intensity (ln)” value is on record?
**A.** Its value is 8.89 ± 0.47.

**Q.** “TTTCTAAATAATTATAATGAATCTGCAAACAAGCAT [XGTACX_negctrl_site391]” was tested. Which “gcPBM binding intensity (ln)” value did it give?
**A.** The value was 8.16 ± 0.41.

**Q.** How did the “gcPBM binding intensity (ln)” value turn out when “CTTGAAAAAATAAAAACACACAATGTGTTTTTGAAT [CACACA_site3283]” was run?
**A.** Its value is 8.7 ± 0.42.

**Q.** “ATAAAAATAAACATACGTACTTACACGAATATACAT [XGTACX_site5989]” was tested. Which “gcPBM binding intensity (ln)” value did it give?
**A.** The value was 9 ± 0.47.

**Q.** Which “gcPBM binding intensity (ln)” value does the source give for “TTAGATTTAAATATCATACACACTTTATATATAATA [CACACA_site959]” here?
**A.** Its value is 8.57 ± 0.38.

**Q.** With “ATATTACTATATTATTGTACGTTAAAAAAAAAAAAT [XGTACX_site8734]” as the sequence, how does the “gcPBM binding intensity (ln)” value read?
**A.** Its value is 8.53 ± 0.35.

**Q.** With “AATAAATAAATAAATAAATATATATATATATATATA [GTGCAC_negctrl_site224]” as the sequence, how does the “gcPBM binding intensity (ln)” value read?
**A.** Its value is 9.29 ± 0.28.

**Q.** “TTATATTAAAAAAGATGTACGTTTAGGAAAAATATA [XGTACX_site7456]” was tested. Which “gcPBM binding intensity (ln)” value did it give?
**A.** The value was 8.37 ± 0.41.

**Q.** How did the “gcPBM binding intensity (ln)” value turn out when “GTTTTTAGTATTTTTTGTACTTAATACATAGCCTTA [XGTACX_site7318]” was run?
**A.** The value was 8.67 ± 0.45.

**Q.** Which “gcPBM binding intensity (ln)” value does the source give for “AATTGAAAAATATATAAGAAGAAATATATATATGTT [GTGCAC_negctrl_site97]” here?
**A.** Its value is 8.63 ± 0.52.

**Q.** For “TTAATATGAAATAAATGTACATAATACATAATAAAA [XGTACX_site6194]”, which “gcPBM binding intensity (ln)” value is on record?
**A.** Its value is 8.74 ± 0.49.

**Q.** How did the “gcPBM binding intensity (ln)” value turn out when “TTTATTAATAAACACACACACACACCCAAAATAAAA [CACACA_site7966]” was run?
**A.** The value was 10.2 ± 0.18.

**Q.** How did the “gcPBM binding intensity (ln)” value turn out when “AAATAGAAGAAATATGCACACATACATTGAAATGTT [CACACA_site7996]” was run?
**A.** The value was 9.05 ± 0.38.

**Q.** TTTTCTTCATAAATGCTGCACTGGTTTAAGCATGAT was tested. Which “gcPBM binding intensity (ln)” value did it give?
**A.** The value was 8.6 ± 0.46.

**Q.** “AAAGAAAAAAAAATTACACACATATATTATATATAT [CACACA_site3211]” was tested. Which “gcPBM binding intensity (ln)” value did it give?
**A.** The value was 8.8 ± 0.4.

**Q.** “CCTTAATATTTTTGAAGTACATATTTATTTTACAAG [XGTACX_site3049]” was tested. Which “gcPBM binding intensity (ln)” value did it give?
**A.** The value was 8.46 ± 0.54.

**Q.** How did the “gcPBM binding intensity (ln)” value turn out when TATTAACAAATTTATGTGCACTGAGGACAAATATAT was run?
**A.** Its value is 8.97 ± 0.23.

**Q.** With “ATTTATATCTCCATATGTTCAAAACTTTCACAAATA [TGCATGCA_negctrl_site108]” as the sequence, how does the “gcPBM binding intensity (ln)” value read?
**A.** Its value is 8.48 ± 0.41.

**Q.** “AAAATAAGTAATTACTAATATATAAATTAATAATTA [CACACA_negctrl_site1602]” was tested. Which “gcPBM binding intensity (ln)” value did it give?
**A.** The value was 8.51 ± 0.49.

**Q.** How did the “gcPBM binding intensity (ln)” value turn out when “AATATAAATTAATTTACACACTAAAAAATATATATA [CACACA_site3778]” was run?
**A.** The value was 8.72 ± 0.47.

**Q.** “CATATGTAGGGAACAATATAATATGCTTTGAATATG [GTGCAC_negctrl_site524]” was tested. Which “gcPBM binding intensity (ln)” value did it give?
**A.** The value was 8.81 ± 0.44.

**Q.** For “TTTTAATTAGCTAGACGTACAATAATATACAAATAT [XGTACX_site6068]”, which “gcPBM binding intensity (ln)” value is on record?
**A.** Its value is 8.63 ± 0.31.

**Q.** Which “gcPBM binding intensity (ln)” value does the source give for “ATTTTTTTAAGATAAGAAAAATAAAGTGTGGATATT [XGTACX_negctrl_site476]” here?
**A.** Its value is 8.37 ± 0.3.

**Q.** “TATGTATTCATATGTTGTACATTATATATAATAAGT [XGTACX_site6589]” was tested. Which “gcPBM binding intensity (ln)” value did it give?
**A.** Its value is 8.7 ± 0.34.

**Q.** Which “gcPBM binding intensity (ln)” value does the source give for “AGCACACAAAAAAAAAAAAAAAAAAAAAAAGGAATG [GTGCAC_negctrl_site73]” here?
**A.** The value was 8.71 ± 0.57.

**Q.** How did the “gcPBM binding intensity (ln)” value turn out when “AAATCAGAACCTATTTGTACATATACAAAAATGATT [XGTACX_site2421]” was run?
**A.** Its value is 8.74 ± 0.38.

**Q.** Which “gcPBM binding intensity (ln)” value does the source give for “ATTATGTATACATAAACACACATATTTATAAAAAAA [CACACA_site6261]” here?
**A.** The value was 8.98 ± 0.4.
